These results are taken from PubChem BioAssay AID1240 (Sanford-Burnham Center for Chemical Genomics, 2008).

The campaign covered roughly 50,000 compounds. About 800 (1.6%) showed an effect of 50% or more. Some of the results follow.

The test has as its target Bcl-2-like protein 10 (Homo sapiens) (UniProt Q9HD36). In words: TR3 peptide-Bcl-B binding displacers, biochemical primary FP assay, phenotype converters (AID 1240).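 Also: 0% = Bcl-B with tracer peptide and DMSO and 100% = tracer peptide lacking Bcl-B.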 As to conditions: GST-Bcl-B / FITC-TR3 peptide fluorescence polarization; stronger effect = higher value; compound at 3.75 mg/L.
UniProt Q9HD36, sequence (Q9HD36 whole entry, looked up): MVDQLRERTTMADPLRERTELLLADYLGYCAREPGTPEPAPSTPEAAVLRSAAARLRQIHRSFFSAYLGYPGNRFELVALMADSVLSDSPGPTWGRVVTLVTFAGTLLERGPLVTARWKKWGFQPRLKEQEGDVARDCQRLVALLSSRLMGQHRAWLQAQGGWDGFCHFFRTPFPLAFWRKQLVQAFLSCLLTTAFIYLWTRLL
With `O=C(Nc1ccccc1F)c1cc2cc(Br)ccc2oc1=O`, the displacement was 0.4%.
To `COc1ccc(C(=O)NC(=S)Nc2cccc([N+](=O)[O-])c2)cc1` belongs 6.4%; to `CC(=O)OCCNC(=O)/C(=C\c1ccc(Cl)cc1)NC(=O)c1ccccc1`, 4.8%; to `Cn1nnnc1SCc1nc2ccccc2[nH]1`, -1.1%.
To `CNc1nc(Nc2ccccc2C(=O)c2ccccc2)nc(OC(C(F)(F)F)C(F)(F)F)n1` belongs 15.9%; to `O=C1OC(c2ccc(F)cc2)=N/C1=C\c1ccc(Cl)cc1`, 4.3%.
The result for `Cc1occc1-c1nc(-c2cccnc2)no1` reads 1.8%; that for `Cc1cccc(C(=O)Nc2sc3c(c2C(=O)N2CCOCC2)CCCCC3)c1`, 2.3%; that for `C=CCNC(=O)CN(c1ccc(C)c(Cl)c1)S(C)(=O)=O`, -13.4%.
As for `O=C(O)c1ccccc1C(=O)n1cnc2ccccc21`, the displacement is -4.5%.
Consider `O=C(COc1cccc(Cl)c1)N/N=C/c1cc(Br)cc(I)c1O`, for which the displacement was found to be 23.6%.
`CCOc1ccc(C(=O)NCC2OCCc3ccccc32)cc1` (stereo not given): the displacement was -4.1%.
The result for `Cc1ccc(-c2cc(C(F)(F)F)n3nc(-c4ccccc4)cc3n2)cc1` reads 43.8%.
Take `N#C/C(=C\c1ccc(OCc2ccccc2)cc1)c1nc(-c2ccccc2)cs1`: the displacement stood at 7.6%.
The result for `CCSc1nc2sc3c(c2c(=O)n1Cc1ccccc1)CCc1ccccc1-3` reads -11.5%; that for `CC1CCCCN1c1ccc(C(=O)c2ccccc2)cc1F` (stereo not given), -2.4%; that for `O=C(Nc1nnc(-c2ccccc2)s1)c1ccco1`, 1.2%.
Consider `Cc1ccccc1CN1CCN(S(C)(=O)=O)CC1`, for which the displacement came to 9.5%.
To `O=C(NCc1ccco1)C(=O)Nc1cccc(C(F)(F)F)c1` belongs 12.3%; to `COc1ccc(C(=O)N2CCOCC2)cc1I`, -3.9%; to `CCOC(=O)c1c(NC(=O)Oc2ccccc2)sc2c1CCC(C)C2` (stereo not given), -13.6%.
As for `COc1ccccc1NC(=O)C(=O)NNC(=O)c1cccc(Cl)c1`, the displacement was -8%.
Take `Cc1c(O)ccc2c1oc(=O)c1ccccc12`: the displacement is -8.3%.
Consider `COc1cccc(CCNC2CC(=O)N(c3ccc(C)cc3)C2=O)c1` (stereo not given), for which the displacement amounted to 2.3%.
The result for `Cc1ccc(N(CC(=O)N(Cc2ccccc2)Cc2ccccc2)S(C)(=O)=O)cc1` reads -7.5%; that for `C#CCOc1c(Br)cc(/C=C2\C(=O)NC(=O)N(c3cc(C)cc(C)c3)C2=O)cc1OC`, -80.6%; that for `COc1ccccc1NC(=O)C1C2C3CCC(C3)C12` (stereo not given), -0.3%.
The result for `CC1=C(C)CC2C(=O)N(c3ccc(N4CCCCC4)cc3)C(=O)C2C1` (stereo not given) reads -24.4%; that for `O=C(COc1ccc2ccccc2c1)N1CCN(C(=O)c2ccc([N+](=O)[O-])cc2)CC1`, -12.7%; that for `COc1ccccc1OCCNc1nc2c(c(=O)n(C)c(=O)n2C)n1C`, -5.3%.
The result for `Cc1ccc(OCC(=O)Nc2ccc(-c3nc4ncccc4o3)cc2)c(C)c1` reads -19.4%; that for `COc1ccc2ccccc2c1C=Nc1ccc([N+](=O)[O-])cc1`, -6.6%; that for `Cc1sc2nc(SCC(=O)NCCCO)n(-c3ccccc3)c(=O)c2c1C`, 4.3%.
On to `CCCOc1ccc(N2C(=O)CC(N3CCN(Cc4ccc5c(c4)OCO5)CC3)C2=O)cc1` (stereo not given), for which the displacement amounted to 9.8%.
The result for `C=CCN1C(=O)/C(=C\c2ccc(OC)c(OC)c2OC)C(=O)NC1=S` reads 1.2%.
The result for `Cc1cc(Br)c(-c2ccc(/C=C3/NC(=S)NC3=O)o2)cc1C` reads -36.3%; that for `Cc1ccc(OCC(=O)Oc2ccc(C(=O)c3ccccc3)cc2C)c(C)c1`, 8.7%.
To `COc1cc(/C=C2/SC(NC(C)=O)=NC2=O)cc(OC)c1OC` belongs 31.2%; to `O=C(Nc1cccc2nsnc12)c1ccccc1Br`, 20.9%.
For the compound `COc1ccc2ccccc2c1/C=C1\SC(=O)N(c2ccccc2)C1=O`, the displacement was 4.4%.
The result for `COc1ccc2c(c1OC)C(=O)N(c1cccc(F)c1)C2` reads -7.2%; that for `CS(=O)(=O)N1CCN(c2ccc([N+](=O)[O-])c(NCc3ccccc3)c2)CC1`, 15.2%.
The result for `O=C(CSc1ccccn1)c1ccc(-c2ccccc2)cc1` reads 3.5%; that for `CC(C)c1ccc(/C=C/C(=O)Nn2cnnc2)cc1`, -4.8%.
The result for `Cc1ccc(NC(=O)Nc2cc(C)ccn2)cc1` reads -6.8%; that for `C=CCN1C(=O)c2ccccc2C1(O)c1ccc(C)cc1` (stereo not given), -9.7%; that for `COC(=O)c1cccc(NC(=O)c2cc[n+]([O-])cc2)c1`, -0.4%.
`CC12C(=O)C(C)(C(c3ccccc3)=C1c1ccccc1)C1C(=O)N(c3ccc([N+](=O)[O-])cc3)C(=O)C12` (stereo not given): the displacement is 7.8%.
The result for `CCOc1ccc2nc(NC(=O)c3cccc(Cl)c3)sc2c1` reads 10.9%; that for `CC1(C)CC(NC(=O)c2ccccc2C(=O)O)CC(C)(C)N1`, 5.6%; that for `CC(C)CN1C(=O)/C(=C/c2cccs2)SC1=S`, 6.4%.
Turning to `Cc1cc(=O)oc2cc(OC(=O)CCCOc3ccc(Cl)cc3Cl)ccc12`, the displacement was -0.8%.
The result for `Cc1ccc2nsnc2c1NC(=O)/C=C/c1cccc([N+](=O)[O-])c1` reads 4.3%; that for `Cc1ccccc1NC(=O)c1cc(-c2ccccc2)nc2c(Cl)cccc12`, -13.6%; that for `COc1ccc(C(=O)N2CCN(Cc3cc(OC)c(O)c(OC)c3)CC2)cc1`, -4.6%.
`COc1ccc(-c2cn3ccccc3n2)cc1Br`: the displacement turned out to be 11.7%.
The result for `CC1(C)C(c2ccco2)=[N+]([O-])C2(CCCCC/C2=N\O)N1O` (stereo not given) reads 0.4%; that for `O=C(/C=C/c1cccc([N+](=O)[O-])c1)Nc1ccc(I)cc1Cl`, -0.1%; that for `O=C1NC(=O)/C(=C\c2ccc(Br)cc2)S1`, 8.9%.
To `COc1ccc(OC)c(NS(=O)(=O)c2c(C)cc(C)cc2C)c1` belongs -9%.
To `Cc1ccc(NC(=O)C2CCC(C)(C(=O)NN)C2(C)C)cc1` (stereo not given) belongs -5.7%; to `CC(=O)n1c(SCC(=O)Nc2ccccc2)nc2ccccc21`, -9%.
For the compound `O=C(c1ccc(Br)cc1)c1ccc2c(c1)OCCCO2`, the displacement was 5.6%.
To `Cc1cccc(/C(N)=N/OC(=O)c2ccc(I)cc2)c1` belongs 3.2%; to `COc1ccc(N2C(=O)NC(=O)/C(=C/c3ccc(OCCOc4ccc(C)cc4)c(OC)c3)C2=O)cc1`, 12.8%.
The result for `O=C1/C(=C/c2ccco2)SC(=S)N1CCc1ccccc1` reads 32.4%; that for `COc1ccc(-c2cc(C(=O)NN=Cc3c(O)ccc4ccccc34)[nH]n2)cc1`, -12.2%.
To `COc1ccc(NS(=O)(=O)c2cccc([N+](=O)[O-])c2)c(OC)c1` belongs -8.7%; to `COc1cc(/C=C2\SC(=S)N(c3ccc([N+](=O)[O-])cc3)C2=O)ccc1OC(=O)C12CC3CC(CC(C3)C1)C2`, 11.4%.
As to `COC(=O)c1ccc(Cl)c(NC(=O)NC(c2ccccc2)c2ccccc2)c1`, the displacement worked out at 12.4%.
To `CCOc1ccc(N(CC(=O)Nc2ccc3c(c2)OCO3)S(C)(=O)=O)cc1` belongs 9.4%; to `COC(=O)c1ccc(NC2=C(Cl)C(=O)c3ccccc3C2=O)cc1`, 0.7%.
To `CCCc1nnc(NC(=O)Nc2ccc(Cl)cc2)s1` belongs -2.9%; to `Cc1ccc(C(=O)Nc2ccccc2C(=O)Nc2nc3ccccc3n2C)cc1`, -6.8%.
The result for `CCCCN(CCCC)C(=O)c1cccc([N+](=O)[O-])c1C` reads -11%.
Turning to `S=C(NCC(c1ccccc1)c1ccccc1)Nc1ccc(Cl)cc1`, the displacement was -10.5%.
For `NC(=O)c1cccc(NC(=O)c2ccc(-c3ccccc3)cc2)c1`, the displacement is -2.8%.
Turning to `COc1cc(C=C2C(=O)NC(=O)NC2=O)cc([N+](=O)[O-])c1O`, the displacement was found to be 7%.
The result for `CC(Oc1ccccc1)C(=O)Nc1c(Cl)cccc1Cl` (stereo not given) reads 0.5%; that for `Oc1cccc(/C=N/Nc2nc(N3CCOCC3)nc(N3CCOCC3)n2)c1`, 10.8%; that for `Clc1cccc(OCCCN2CCOCC2)c1Cl`, -6.4%.
To `COc1ccc(C(=O)/C=C/c2ccc(-c3ccccc3[N+](=O)[O-])o2)cc1` belongs 13.8%.
The result for `CC1=C(C(=O)OC(C)C(C)(C)C)C(c2ccc(Cl)cc2)NC(=O)N1` (stereo not given) reads 1.9%.
For the compound `Cc1ccc(N2C(=O)C3C(C2=O)C2C=CC3C23CC3)cc1Cl` (stereo not given), the displacement stood at 6.2%.
To `CCn1c(=O)c(-c2nc3ccccc3[nH]2)c(O)c2ccccc21` belongs 26%; to `CCOC(=O)CSc1nc(C)c2ccccc2n1`, 8.6%; to `CCCCc1c(C)[nH]c2ccc(C(=O)O)cc2c1=S`, 5.7%.
The result for `CC(=O)N1CCN(c2cc(N3CCCCC3)c(F)cc2[N+](=O)[O-])CC1` reads -1.1%; that for `O=[N+]([O-])c1cc(NS(=O)(=O)c2cc(Cl)ccc2Cl)ccc1Cl`, -7.2%; that for `CCCNC(=O)c1cc2nc(-c3ccc(OC)cc3)cc(C(F)(F)F)n2n1`, 14.5%.
The result for `COc1ccc(N(CC(=O)Nc2ccccc2C)S(=O)(=O)c2ccccc2)cc1Cl` reads 12.4%.
Consider `Cc1ccc(N2C(=O)C3C(C2=O)N2CCCN2C3c2ccccc2)cc1` (stereo not given), for which the displacement was 1.9%.
To `O=C(Cc1ccccc1)NN=C1c2ccccc2-c2ccccc21` belongs 5.3%; to `COCC(O)CSCc1ccccc1` (stereo not given), -3.9%.
To `O=C(Nc1ccc(Oc2ccccc2)cc1)Nc1cc(F)c(F)cc1Cl` belongs -12.3%; to `CC(C)(C)c1cc2c(c(C(C)(C)C)c1)OC(c1ccco1)N2` (stereo not given), -7.4%.
The result for `CNC(=O)c1c(NC(=O)c2ccccc2F)sc2c1CCCCC2` reads -7.9%; that for `COc1c(Cl)cc(C(=O)Nc2ccc(N3CCCCC3)cc2)cc1Cl`, 25.2%.
Regarding `C=CC(=O)NC(NC(=O)C=C)c1ccc(OC)cc1`, the displacement came out at 9.7%.
`CCOC(=O)c1ccc(NC(=O)CCCOc2ccccc2)cc1`: the displacement was -18.5%.
To `CCOC(=O)C1=C(C)N=c2s/c(=C\c3ccc([N+](=O)[O-])o3)c(=O)n2C1c1ccc(OC)cc1` (stereo not given) belongs 7.1%; to `COc1ccc(C2CC(=O)C3=C(C2)Nc2ccccc2NC3c2cccs2)cc1OC` (stereo not given), -4.5%.
The result for `O=C(CN(c1ccccc1)S(=O)(=O)c1ccccc1[N+](=O)[O-])Nc1cccc(Cl)c1` reads 13.2%.
The result for `O=C1/C(=C/c2cccnc2)SC(=S)N1Cc1ccco1` reads 10.7%; that for `CCc1c(C)[nH]c2c(C)cccc2c1=O`, -9.4%; that for `COc1ccc(Cl)cc1NC(=O)C1=C(C)NC(=O)NC1c1ccc(Br)cc1` (stereo not given), 14%.
In the case of `COC(=O)c1ccc(NC(=O)c2ccc(OCC(C)C)cc2)cc1`, the displacement is -7.7%.
`O=C(/C=C/c1cccc([N+](=O)[O-])c1)Nc1ccc(OC(F)(F)F)cc1`: the displacement amounted to 4.8%.
For the compound `CSCCC(NC(=O)/C(=C\c1cccc([N+](=O)[O-])c1)NC(=O)c1ccccc1)C(=O)O` (stereo not given), the displacement is 1.8%.
For the compound `CCOc1ccc(N(CC(=O)Nc2c(C)cccc2C)S(=O)(=O)c2ccc(SC)cc2)cc1`, the displacement was determined as 9.6%.
